# According to the supplement of paper PMC8728848:
# This is one part of the list.
# Key:
# Test in all cases: glycan array binding signal (z-score within array); higher = stronger binding
# Settings in all cases: glycan notation: IUPAC condensed, linker removed
# Fuc(a1-2)Gal = biological target: Fuc(a1-2)Gal
# Method in brief: (§1)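 Glycan array binding is given as a within-array Z-score, which can be read as non-binding when negative. The arrays, 3228 of them, came from the Consortium for Functional Glycomics database and were retained only where the protein sequence was available. Z-scores were averaged across arrays of the same protein sequence at different concentrations or buffers and across linkers.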
# Fuc(a1-2)Gal(b1-3)GalNAc = biological target: Fuc(a1-2)Gal(b1-3)GalNAc
# Method in brief: as §1
# [1] = biological target: Fuc(a1-2)Gal(b1-3)GalNAc(a1-3)[Fuc(a1-2)]Gal(b1-4)Glc
# Method in brief: as §1
# [2] = biological target: Fuc(a1-2)Gal(b1-3)GalNAc(a1-3)[Fuc(a1-2)]Gal(b1-4)GlcNAc
# Method in brief: as §1
# [3] = biological target: Fuc(a1-2)Gal(b1-3)GalNAc(b1-3)Gal
# Method in brief: as §1
# [4] = biological target: Fuc(a1-2)Gal(b1-3)GalNAc(b1-3)Gal(a1-4)Gal(b1-4)Glc
# Method in brief: as §1
# [5] = biological target: Fuc(a1-2)Gal(b1-3)GalNAc(b1-4)[Neu5Ac(a2-3)]Gal(b1-4)Glc
# Method in brief: as §1
# Fuc(a1-2)Gal(b1-3)GlcNAc = biological target: Fuc(a1-2)Gal(b1-3)GlcNAc
# Method in brief: as §1
# [6] = biological target: Fuc(a1-2)Gal(b1-3)GlcNAc(b1-2)Man(a1-3)[Fuc(a1-2)Gal(b1-3)GlcNAc(b1-2)Man(a1-6)]Man(b1-4)GlcNAc(b1-4)GlcNAc
# Method in brief: as §1
# [7] = biological target: Fuc(a1-2)Gal(b1-3)GlcNAc(b1-2)Man(a1-3)[Fuc(a1-2)Gal(b1-3)GlcNAc(b1-2)Man(a1-6)]Man(b1-4)GlcNAc(b1-4)[Fuc(a1-6)]GlcNAc
# Method in brief: as §1
# [8] = biological target: Fuc(a1-2)Gal(b1-3)GlcNAc(b1-3)Gal(b1-4)Glc
# Method in brief: as §1
# [9] = biological target: Fuc(a1-2)Gal(b1-3)GlcNAc(b1-3)GalNAc
# Method in brief: as §1
# [10] = biological target: Fuc(a1-2)Gal(b1-3)GlcNAc(b1-3)[Fuc(a1-2)Gal(b1-3)GlcNAc(b1-6)]GalNAc
# Method in brief: as §1
# [11] = biological target: Fuc(a1-2)Gal(b1-3)GlcNAc(b1-3)[Gal(b1-4)GlcNAc(b1-6)]Gal(b1-4)Glc
# Method in brief: as §1
# [12] = biological target: Fuc(a1-2)Gal(b1-3)GlcNAc(b1-3)[Neu5Ac(a2-6)Gal(b1-4)GlcNAc(b1-6)]Gal(b1-4)Glc
# Method in brief: as §1
# [13] = biological target: Fuc(a1-2)Gal(b1-3)GlcNAc6S
# Method in brief: as §1
# [14] = biological target: Fuc(a1-2)Gal(b1-3)[Fuc(a1-4)]GlcNAc
# Method in brief: as §1
# [15] = biological target: Fuc(a1-2)Gal(b1-3)[Fuc(a1-4)]GlcNAc(b1-2)Man(a1-3)[Fuc(a1-2)Gal(b1-3)[Fuc(a1-4)]GlcNAc(b1-2)Man(a1-3)]Man(b1-4)GlcNAc(b1-4)GlcNAc
# Method in brief: as §1
# [16] = biological target: Fuc(a1-2)Gal(b1-3)[Fuc(a1-4)]GlcNAc(b1-2)Man(a1-3)[Fuc(a1-2)Gal(b1-3)[Fuc(a1-4)]GlcNAc(b1-2)Man(a1-6)]Man(b1-4)GlcNAc(b1-4)[Fuc(a1-6)]GlcNAc(b1-4)[Fuc(a1-6)]GlcNAc
# Method in brief: as §1
# [17] = biological target: Fuc(a1-2)Gal(b1-3)[Fuc(a1-4)]GlcNAc(b1-3)[Fuc(a1-3)[Gal(b1-4)]GlcNAc(b1-6)]Gal(b1-4)Glc
# Method in brief: as §1
# [18] = biological target: Fuc(a1-2)Gal(b1-3)[Fuc(a1-4)]GlcNAc(b1-3)[Gal(b1-4)GlcNAc(b1-6)]Gal(b1-4)Glc
# Method in brief: as §1
# Fuc(a1-2)Gal(b1-4)Glc = biological target: Fuc(a1-2)Gal(b1-4)Glc
# Method in brief: as §1
# Fuc(a1-2)Gal(b1-4)Glc6S = biological target: Fuc(a1-2)Gal(b1-4)Glc6S
# Method in brief: as §1
# Fuc(a1-2)Gal(b1-4)GlcNAc = biological target: Fuc(a1-2)Gal(b1-4)GlcNAc
# Method in brief: as §1
# [19] = biological target: Fuc(a1-2)Gal(b1-4)GlcNAc(b1-2)Man
# Method in brief: as §1
# [20] = biological target: Fuc(a1-2)Gal(b1-4)GlcNAc(b1-2)Man(a1-3)[Fuc(a1-2)Gal(b1-4)GlcNAc(b1-2)Man(a1-6)]Man(b1-4)GlcNAc(b1-4)GlcNAc
# Method in brief: as §1
# [21] = biological target: Fuc(a1-2)Gal(b1-4)GlcNAc(b1-2)Man(a1-3)[Fuc(a1-2)Gal(b1-4)GlcNAc(b1-2)Man(a1-6)]Man(b1-4)GlcNAc(b1-4)[Fuc(a1-6)]GlcNAc
# Method in brief: as §1
# [22] = biological target: Fuc(a1-2)Gal(b1-4)GlcNAc(b1-2)[Fuc(a1-2)Gal(b1-4)GlcNAc(b1-4)]Man(a1-3)[Fuc(a1-2)Gal(b1-4)GlcNAc(b1-2)Man(a1-6)]Man(b1-4)GlcNAc(b1-4)GlcNAc
# Method in brief: as §1
# [23] = biological target: Fuc(a1-2)Gal(b1-4)GlcNAc(b1-3)Gal(b1-4)GlcNAc
# Method in brief: as §1
# [24] = biological target: Fuc(a1-2)Gal(b1-4)GlcNAc(b1-3)Gal(b1-4)GlcNAc(b1-2)Man(a1-3)[Fuc(a1-2)Gal(b1-4)GlcNAc(b1-3)Gal(b1-4)GlcNAc(b1-2)Man(a1-6)]Man(b1-4)GlcNAc(b1-4)GlcNAc
# Method in brief: as §1
binder,measurement,setting,value
Epa3to1 (Candida glabrata) (protein) MGSSHHHHHHSSGLVPRGSHMKRELSSQNPFGYPIGCSPQDVAIIPGLTMELYSYPIVSGTPPNCYDASYVDPEYPRTGYLKRKMVGKSTGVTGNLNYKYSVEKACMVKYGNLPAGYNYNEPLTVSNFTMILYGYFKAQTTGLHTFFVNADDLLYINFGAGNAFDCCKREDSKTKLGEYVAYDIWHVDSSKNKVSLFLEKDLYYPIRMFFNNREYDSSLDLSFSVNGATDQISDFSGYLYSVPDQPDTCPAHIGYDTTCR,glycan array binding signal (z-score),Fuc(a1-2)Gal,-0.763
same,glycan array binding signal (z-score),Fuc(a1-2)Gal(b1-3)GalNAc,-0.416
same,glycan array binding signal (z-score),[1],-0.293
same,glycan array binding signal (z-score),[2],-0.516
same,glycan array binding signal (z-score),[3],1.55
same,glycan array binding signal (z-score),[4],-0.161
same,glycan array binding signal (z-score),[5],-0.18
same,glycan array binding signal (z-score),Fuc(a1-2)Gal(b1-3)GlcNAc,-0.787
same,glycan array binding signal (z-score),[6],0.148
same,glycan array binding signal (z-score),[7],0.146
same,glycan array binding signal (z-score),[8],-0.231
same,glycan array binding signal (z-score),[9],-0.396
same,glycan array binding signal (z-score),[10],0.23
same,glycan array binding signal (z-score),[11],0.221
same,glycan array binding signal (z-score),[12],-0.43
same,glycan array binding signal (z-score),[13],-0.381
same,glycan array binding signal (z-score),[14],-0.064
same,glycan array binding signal (z-score),[15],-0.409
same,glycan array binding signal (z-score),[16],-0.07
same,glycan array binding signal (z-score),[17],-1.59
same,glycan array binding signal (z-score),[18],-0.421
same,glycan array binding signal (z-score),Fuc(a1-2)Gal(b1-4)Glc,-0.39
same,glycan array binding signal (z-score),Fuc(a1-2)Gal(b1-4)Glc6S,-0.843
same,glycan array binding signal (z-score),Fuc(a1-2)Gal(b1-4)GlcNAc,-0.514
same,glycan array binding signal (z-score),[19],0.029
same,glycan array binding signal (z-score),[20],-0.477
same,glycan array binding signal (z-score),[21],0.022
same,glycan array binding signal (z-score),[22],-0.573
same,glycan array binding signal (z-score),[23],-0.394
same,glycan array binding signal (z-score),[24],-0.372
